# Measurements from ChEMBL document CHEMBL5606458, “ASAP - ZIKV NS2B-NS3 protease fluorescence single point” (2024).
# Among all 2,700 compounds or so, about 160 (5.9%) showed an effect of 50% or more. Some of the results follow.
# Target: Nonstructural protein 3 (Zika virus) (UniProt A0A024AXB9)
# [1] = PRVABC59, Concentration 15.0 uM, Number of replicates 1.0
# [2] = PRVABC59, Concentration 50.0 uM, Number of replicates 1.0
# UniProt A0A024AXB9, sequence (A0A024AXB9 as listed by the source): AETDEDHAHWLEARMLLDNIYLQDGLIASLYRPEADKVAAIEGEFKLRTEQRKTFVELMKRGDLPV
smiles,measurement,setting,value
CNC(=O)c1cc(Cl)ccc1NS(=O)(=O)c1cc(Cl)cc(C(=O)NC)c1OC,inhibition,"PRVABC59, Concentration 49.5 uM, Number of replicates 2.0, Standard deviation 3.3855207762004267 %",2.41%
same,inhibition,"PRVABC59, Concentration 99.01 uM, Number of replicates 2.0, Standard deviation 5.195492929330909 %",7.41%
same,inhibition,"PRVABC59, Concentration 198.0 uM, Number of replicates 2.0, Standard deviation 4.6757612585549415 %",13.7%
CNC(=O)C[C@H]1CCN1S(=O)(=O)c1ccc(Oc2ccccc2Cl)cc1,inhibition,"PRVABC59, Concentration 49.5 uM, Number of replicates 2.0, Standard deviation 2.758296707579094 %",-0.578%
same,inhibition,"PRVABC59, Concentration 99.01 uM, Number of replicates 2.0, Standard deviation 2.5849784140838667 %",0.719%
same,inhibition,"PRVABC59, Concentration 198.0 uM, Number of replicates 2.0, Standard deviation 2.354592023299434 %",4.24%
O=C(NCCc1cc(Cl)ccc1Cl)c1cc(Cl)ccc1NS(=O)(=O)c1ccc(Oc2ccccc2Cl)cc1,inhibition,[1],16.2%
Cc1cc(CO)c2cccc(Cc3ccccc3C(=O)NCc3sccc3C)c2n1,inhibition,"PRVABC59, Concentration 49.95 uM, Number of replicates 2.0, Standard deviation 0.8704140180486788 %",-7.89%
same,inhibition,"PRVABC59, Concentration 99.9 uM, Number of replicates 2.0, Standard deviation 3.3610577542152194 %",-4.68%
O=C(NCc1ccc(-c2ccccc2)cc1)c1cc(Cl)ccc1NS(=O)(=O)c1ccc(Oc2ccccc2Cl)cc1,inhibition,[1],9%
COc1cc(CC(=O)NCc2ccccn2)nc(N2CCNCC2)n1,inhibition,"PRVABC59, Concentration 49.5 uM, Number of replicates 2.0, Standard deviation 1.9153722971220695 %",-5.67%
same,inhibition,"PRVABC59, Concentration 99.01 uM, Number of replicates 2.0, Standard deviation 1.5355688377518466 %",-5.4%
same,inhibition,"PRVABC59, Concentration 198.0 uM, Number of replicates 2.0, Standard deviation 2.2860895703029196 %",-5.81%
CCN(Cc1ccc(C(F)(F)F)cc1)C(=O)c1cc(Cl)ccc1NS(=O)(=O)c1ccc(Oc2ccccc2Cl)cc1,inhibition,[1],23.3%
O=C(NC12CC3CC(CC(C3)C1)C2)c1cc(Cl)ccc1NS(=O)(=O)c1ccc(Oc2ccccc2Cl)cc1,inhibition,[1],27.2%
COc1ccc([C@@H](C)NC(=O)C2CCN(c3ccc(C=O)cc3)CC2)cc1OC,inhibition,"PRVABC59, Concentration 10.0 uM, Number of replicates 1.0",22.9%
CS(=O)(=O)Nc1ccc(C(=O)Nc2nc3ccccc3s2)cc1,inhibition,"PRVABC59, Concentration 49.5 uM, Number of replicates 2.0, Standard deviation 0.4203534480847361 %",-1.75%
same,inhibition,"PRVABC59, Concentration 99.01 uM, Number of replicates 2.0, Standard deviation 1.620548095411513 %",-1.84%
same,inhibition,"PRVABC59, Concentration 198.0 uM, Number of replicates 2.0, Standard deviation 1.02140189967847 %",-1.45%
Cc1c(NC(=O)C2CCN(c3ccc(C=O)cc3)CC2)c(=O)n(-c2ccccc2)n1C,inhibition,[2],25.6%
CNC(=O)c1cc(Cl)cc(C)c1NS(=O)(=O)c1ccc(Oc2ccccc2Cl)cc1,inhibition,"PRVABC59, Concentration 49.5 uM, Number of replicates 2.0, Standard deviation 3.2928672721913825 %",-0.951%
same,inhibition,"PRVABC59, Concentration 99.01 uM, Number of replicates 2.0, Standard deviation 3.4234503366337914 %",-2.2%
same,inhibition,"PRVABC59, Concentration 198.0 uM, Number of replicates 2.0, Standard deviation 3.9523113625087185 %",-3.57%
c1cnc2c(C3CCN(Cc4cscn4)CC3)c[nH]c2c1,inhibition,"PRVABC59, Concentration 49.5 uM, Number of replicates 2.0, Standard deviation 3.682232334202181 %",-1.48%
same,inhibition,"PRVABC59, Concentration 99.01 uM, Number of replicates 2.0, Standard deviation 2.7567516884063816 %",-3%
same,inhibition,"PRVABC59, Concentration 198.0 uM, Number of replicates 2.0, Standard deviation 1.9133167953201933 %",-1.59%
O=Cc1ccc(N2CCC(C(=O)N3CCC[C@H]3c3cccc(F)c3)CC2)cc1,inhibition,[2],24.6%
NCc1cccc(NC(=O)[C@@H](Cc2ccc(O)cc2)NC(=O)OCc2ccccc2)c1,inhibition,"PRVABC59, Concentration 49.5 uM, Number of replicates 2.0, Standard deviation 1.0794413132384577 %",4.38%
same,inhibition,"PRVABC59, Concentration 99.01 uM, Number of replicates 2.0, Standard deviation 0.37435168022164167 %",9.22%
same,inhibition,"PRVABC59, Concentration 198.0 uM, Number of replicates 2.0, Standard deviation 0.8468347107681681 %",19%
CN1CCN(C2CCN(C(=O)c3cc(Cl)ccc3NS(=O)(=O)c3ccc(Oc4ccccc4Cl)cc3)CC2)CC1,inhibition,[1],1.35%
CC(C)(CO)NC(=O)c1cc(Cl)cc(NC(=O)c2cnc(-c3ccc(Cl)cc3)[nH]2)c1,inhibition,"PRVABC59, Concentration 49.5 uM, Number of replicates 2.0, Standard deviation 1.2332134367543028 %",-0.514%
same,inhibition,"PRVABC59, Concentration 99.01 uM, Number of replicates 2.0, Standard deviation 0.12370791246262977 %",1.95%
same,inhibition,"PRVABC59, Concentration 198.0 uM, Number of replicates 2.0, Standard deviation 0.6050092438293936 %",5.2%
Cc1cnccc1NC(=O)CCCn1c(=O)oc2ccccc21,inhibition,"PRVABC59, Concentration 49.5 uM, Number of replicates 2.0, Standard deviation 0.527352411042616 %",-2.09%
same,inhibition,"PRVABC59, Concentration 99.01 uM, Number of replicates 2.0, Standard deviation 2.889325106159581 %",-3.22%
same,inhibition,"PRVABC59, Concentration 198.0 uM, Number of replicates 2.0, Standard deviation 0.5515984603931448 %",-0.216%
CCc1ccc([N+](=O)[O-])cc1NC(=O)c1cc(Cl)ccc1NS(=O)(=O)c1ccc(Oc2ccccc2Cl)cc1,inhibition,[1],29.9%
Cc1cn[nH]c1-c1nn(C)cc1NC(=O)c1ccccc1C(F)(F)F,inhibition,"PRVABC59, Concentration 49.5 uM, Number of replicates 2.0, Standard deviation 1.0225233430236478 %",-7.9%
same,inhibition,"PRVABC59, Concentration 99.01 uM, Number of replicates 2.0, Standard deviation 0.5934117798183479 %",-7.43%
same,inhibition,"PRVABC59, Concentration 198.0 uM, Number of replicates 2.0, Standard deviation 1.8923446077948693 %",-5.9%
COCCCN1CCC(NC(=O)c2cc(Cl)ccc2NS(=O)(=O)c2ccc(Oc3ccccc3Cl)cc2)CC1,inhibition,[1],6.54%
Cn1cc(NC(=O)c2cccc3ncccc23)cn1,inhibition,"PRVABC59, Concentration 49.5 uM, Number of replicates 2.0, Standard deviation 3.392303236065074 %",-6.29%
same,inhibition,"PRVABC59, Concentration 99.01 uM, Number of replicates 2.0, Standard deviation 4.211868261497117 %",-5.3%
same,inhibition,"PRVABC59, Concentration 198.0 uM, Number of replicates 2.0, Standard deviation 3.7498965706755105 %",-3.61%
N#Cc1cc(Cl)c(NC(=O)c2cc(Cl)ccc2NS(=O)(=O)c2ccc(Oc3ccccc3Cl)cc2)c(Cl)c1,inhibition,[1],24%
Cc1cc(CO)c2cccc(C[C@H](NC(=O)[C@@H](N)CC(N)=O)C(=O)O)c2n1,inhibition,"PRVABC59, Concentration 49.95 uM, Number of replicates 2.0, Standard deviation 1.4050805088881784 %",3.76%
same,inhibition,"PRVABC59, Concentration 99.9 uM, Number of replicates 2.0, Standard deviation 0.43156080086596493 %",16.9%
